The list shows a part of the results. Interaction screen of human proteins with wild-type SARS-CoV-2 proteins by split-DHFR complementation in yeast, 1 µg/mL methotrexate. Value = fitness of the pair (three or more lineages) minus that of the viral protein without a human partner, on a scale set by negative (0) and fused positive (1) controls, mean of up to three cultures; higher = more likely to interact. Active = false discovery rate below 0.05 (one-sided t-test) in at least one culture. Nearly all pairs are not hits, and differences among them are mostly noise (correlation between cultures about 0.3); most hits were seen in one culture only. Human sequences are the Swiss-Prot entries looked up by gene name; the clone may be another isoform. NSP2 values were corrected by the authors for a growth advantage. Listed are human proteins with a hit and a random twelfth of the others.
B1: CYTIP, O60759 (protein)
chain: MSLQRLLQHSSNGNLADFCAGPAYSSYSTLTGSLTMDDNRRIQMLADTVATLPRGRKQLALTRSSSLSDFSWSQRKLVTVEKQDNETFGFEIQSYRPQNQNACSSEMFTLICKIQEDSPAHCAGLQAGDVLANINGVSTEGFTYKQVVDLIRSSGNLLTIETLNGTMILKRTELEAKLQVLKQTLKQKWVEYRSLQLQEHRLLHGDAANCPSLENMDLDELSLFGPLPGPGPALVDRNRLSSESSCKSWLSSMTMDSEDGYQTCVSEDSSRGAFSRQTSTDDECFIPKEGDDFLRRSSSRRNRSISNTSSGSMSPLWEGNLSSMFGTLPRKSRKGSVRKQLLKFIPGLHRAVEEEESRF
B2: DACH2, Q96NX9 (protein)
chain: MAVSASPVISATSSGAGVPGGLFRAEPLYSTPREPPRLTPNMINSFVVNNHSNSAGGGGRGNTNTNECRMVDMHGMKVASFLMDGQELICLPQVFDLFLKHLVGGLHTVYTKLKRLDISPVVCTVEQVRILRGLGAIQPGVNRCKLITRKDFETLFTDCTNARRKRQMTRKQAVNSSRPGRPPKRSLGVLQENARLLTHAVPGLLSPGLITPTGITAAAMAEAMKLQKMKLMAMNTLQGNGSQNGTESEPDDLNSNTGGSESSWDKDKMQSPFAAPGPQHGIAHAALAGQPGIGGAPTLNPLQQNHLLTNRLDLPFMMMPHPLLPVSLPPASVAMAMNQMNHLNTIANMAAAAQIHSPLSRAGTSVIKERIPESPSPAPSLEENHRPGSQTSSHTSSSVSSSPSQMDHHLERMEEVPVQIPIMKSPLDKIQLTPGQALPAGFPGPFIFADSLSSVETLLTNIQGLLKVALDNARIQEKQIQQEKKELRLELYREREIRENLERQLAVELQSRTTMQKRLKKEKKTKRKLQEALEFESKRREQVEQALKQATTSDSGLRMLKDTGIPDIEIENNGTPHDSAAMQGGNYYCLEMAQQLYSA

The binders below were run against SARS-CoV-2 E (assay: yeast fitness gain over the viral ORF with no human partner (scaled fitness); higher = more likely to interact).
Method: (§1)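 Split mouse DHFR complementation in pooled diploid yeast: human ORFeome clones carry one fragment and viral ORFs the other; barcoded lineages compete in 1 µg/mL methotrexate and fitness is read by barcode sequencing in up to three cultures.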

| Binder | yeast fitness gain |
| --- | --- |
| B1 | inactive: 0.0656 |
| B2 | inactive: 0.0494 |

The binders below were run against SARS-CoV-2 M in the same assay as above.
Method: as §1

| Binder | yeast fitness gain |
| --- | --- |
| B1 | inactive: 0.0659 |
| B2 | inactive: 0.00136 |

These binders were tested against SARS-CoV-2 NSP1 in the same assay as above.
Method: as §1

| Binder | yeast fitness gain |
| --- | --- |
| B1 | inactive: -0.0361 |
| B2 | inactive: -0.0377 |

What follows are binders tested against SARS-CoV-2 NSP10 in the same assay as above.
Method: as §1

| Binder | yeast fitness gain |
| --- | --- |
| B1 | inactive: 0.0436 |
| B2 | inactive: 0.0315 |

What follows are binders tested against SARS-CoV-2 NSP12 in the same assay as above.
Method: as §1

| Binder | yeast fitness gain |
| --- | --- |
| B1 | inactive: 0.0129 |
| B2 | inactive: -0.00558 |

These binders were tested against SARS-CoV-2 NSP13 in the same assay as above.
Method: as §1

| Binder | yeast fitness gain |
| --- | --- |
| B1 | inactive: -0.0408 |
| B2 | inactive: 0.0398 |

Each binder was assayed against SARS-CoV-2 NSP15 in the same assay as above.
Method: as §1

| Binder | yeast fitness gain |
| --- | --- |
| B1 | inactive: 0.0146 |
| B2 | inactive: -0.00658 |

What follows are binders tested against SARS-CoV-2 NSP16 in the same assay as above.
Method: as §1

| Binder | yeast fitness gain |
| --- | --- |
| B1 | inactive: -0.0177 |
| B2 | inactive: 0.0532 |

What follows are binders tested against SARS-CoV-2 NSP2 in the same assay as above.
Method: as §1

| Binder | yeast fitness gain |
| --- | --- |
| B1 | inactive: -0.0764 |
| B2 | inactive: -0.119 |

These binders were tested against SARS-CoV-2 NSP5 in the same assay as above.
Method: as §1

| Binder | yeast fitness gain |
| --- | --- |
| B1 | inactive: 0.00197 |
| B2 | inactive: 0.00101 |

Each binder was assayed against SARS-CoV-2 NSP6 in the same assay as above.
Method: as §1

| Binder | yeast fitness gain |
| --- | --- |
| B1 | inactive: 0.0398 |
| B2 | inactive: 0.0483 |

Each binder was assayed against SARS-CoV-2 NSP7 in the same assay as above.
Method: as §1

| Binder | yeast fitness gain |
| --- | --- |
| B1 | inactive: -0.0645 |
| B2 | inactive: -0.0129 |

The binders below were run against SARS-CoV-2 NSP8 in the same assay as above.
Method: as §1

| Binder | yeast fitness gain |
| --- | --- |
| B1 | inactive: 0.0361 |
| B2 | inactive: 0.0352 |

These binders were tested against SARS-CoV-2 NSP9 in the same assay as above.
Method: as §1

| Binder | yeast fitness gain |
| --- | --- |
| B1 | inactive: -0.0162 |
| B2 | inactive: 0.0672 |

What follows are binders tested against SARS-CoV-2 ORF10 in the same assay as above.
Method: as §1

| Binder | yeast fitness gain |
| --- | --- |
| B1 | inactive: -0.0575 |
| B2 | inactive: 0.0461 |

These binders were tested against SARS-CoV-2 ORF3A in the same assay as above.
Method: as §1

| Binder | yeast fitness gain |
| --- | --- |
| B1 | inactive: -0.0584 |
| B2 | inactive: 0.0855 |

These binders were tested against SARS-CoV-2 ORF3B in the same assay as above.
Method: as §1

| Binder | yeast fitness gain |
| --- | --- |
| B1 | inactive: 0.00687 |
| B2 | inactive: 0.0199 |

These binders were tested against SARS-CoV-2 ORF6 in the same assay as above.
Method: as §1

| Binder | yeast fitness gain |
| --- | --- |
| B1 | inactive: -0.0133 |
| B2 | inactive: 0.0275 |

The binders below were run against SARS-CoV-2 ORF7A in the same assay as above.
Method: as §1

| Binder | yeast fitness gain |
| --- | --- |
| B1 | inactive: -0.0382 |
| B2 | inactive: 0.0442 |

Each binder was assayed against SARS-CoV-2 ORF7B in the same assay as above.
Method: as §1

| Binder | yeast fitness gain |
| --- | --- |
| B1 | inactive: -0.0137 |
| B2 | inactive: 0.0641 |

What follows are binders tested against SARS-CoV-2 ORF8 in the same assay as above.
Method: as §1

| Binder | yeast fitness gain |
| --- | --- |
| B1 | inactive: 0.00764 |
| B2 | inactive: 0.0174 |

The binders below were run against SARS-CoV-2 ORF9B in the same assay as above.
Method: as §1

| Binder | yeast fitness gain |
| --- | --- |
| B1 | inactive: -0.0495 |
| B2 | inactive: 0.0489 |

The binders below were run against SARS-CoV-2 ORF9Bwu (the 73-codon ORF) in the same assay as above.
Method: as §1

| Binder | yeast fitness gain |
| --- | --- |
| B1 | inactive: -0.181 |
| B2 | inactive: 0.0767 |

These binders were tested against SARS-CoV-2 S in the same assay as above.
Method: as §1

| Binder | yeast fitness gain |
| --- | --- |
| B1 | inactive: -0.0473 |
| B2 | inactive: 0.0325 |

Each binder was assayed against SARS-CoV-2 NSP14 in the same assay as above.
Method: as §1

| Binder | yeast fitness gain |
| --- | --- |
| B2 | inactive: -0.102 |

Each binder was assayed against SARS-CoV-2 NSP4 in the same assay as above.
Method: as §1

| Binder | yeast fitness gain |
| --- | --- |
| B2 | inactive: 0.0512 |

— the supplement of paper PMC11741623
